In the supplement of paper PMC8728848:
This is one part of the list.

Columns and labels:
Assay in all cases: glycan array binding signal (z-score within array); higher = stronger binding
Conditions in all cases: glycan notation: IUPAC condensed, linker removed
Gal(a1-3)Gal(b1-3)GlcNAc = target: Gal(a1-3)Gal(b1-3)GlcNAc
Summary of the method: (§1)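 The binding signal is a Z-score computed within each array and averaged over linkers. Arrays of the same protein sequence at different concentrations or buffers were also averaged together. Data originate from 3228 arrays in the Consortium for Functional Glycomics database, kept only where the protein sequence was available.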

[1] = target: Gal(a1-3)Gal(b1-3)GlcNAc(b1-2)Man
Summary of the method: as §1

[2] = target: Gal(a1-3)Gal(b1-3)GlcNAc(b1-2)Man(a1-3)[Gal(a1-3)Gal(b1-3)GlcNAc(b1-2)Man(a1-6)]Man(b1-4)GlcNAc(b1-4)GlcNAc
Summary of the method: as §1

[3] = target: Gal(a1-3)Gal(b1-3)GlcNAc(b1-3)GalNAc
Summary of the method: as §1

[4] = target: Gal(a1-3)Gal(b1-3)GlcNAc(b1-6)GalNAc
Summary of the method: as §1

[5] = target: Gal(a1-3)Gal(b1-3)[Fuc(a1-4)]GlcNAc(b1-2)Man(a1-3)[Gal(a1-3)Gal(b1-3)[Fuc(a1-4)]GlcNAc(b1-2)Man(a1-6)]Man(b1-4)GlcNAc(b1-4)GlcNAc
Summary of the method: as §1

Gal(a1-3)Gal(b1-4)Glc = target: Gal(a1-3)Gal(b1-4)Glc
Summary of the method: as §1

Gal(a1-3)Gal(b1-4)GlcNAc = target: Gal(a1-3)Gal(b1-4)GlcNAc
Summary of the method: as §1

[6] = target: Gal(a1-3)Gal(b1-4)GlcNAc(b1-2)Man
Summary of the method: as §1

[7] = target: Gal(a1-3)Gal(b1-4)GlcNAc(b1-2)Man(a1-3)[Gal(a1-3)Gal(b1-4)GlcNAc(b1-2)Man(a1-6)]Man(b1-4)GlcNAc(b1-4)GlcNAc
Summary of the method: as §1

[8] = target: Gal(a1-3)Gal(b1-4)GlcNAc(b1-3)GalNAc
Summary of the method: as §1

[9] = target: Gal(a1-3)Gal(b1-4)GlcNAc(b1-6)GalNAc
Summary of the method: as §1

[10] = target: Gal(a1-3)Gal(b1-4)[Fuc(a1-3)]GlcNAc
Summary of the method: as §1

[11] = target: Gal(a1-3)Gal(b1-4)[Fuc(a1-3)]GlcNAc(b1-2)Man(a1-3)[Gal(a1-3)Gal(b1-4)[Fuc(a1-3)]GlcNAc(b1-2)Man(a1-6)]Man(b1-4)GlcNAc(b1-4)GlcNAc
Summary of the method: as §1

Gal(a1-3)GalNAc = target: Gal(a1-3)GalNAc
Summary of the method: as §1

[12] = target: Gal(a1-3)[Gal(a1-4)]Gal(b1-4)GlcNAc
Summary of the method: as §1

[13] = target: Gal(a1-4)Gal(b1-3)GlcNAc(b1-2)Man(a1-3)[Gal(a1-4)Gal(b1-3)GlcNAc(b1-2)Man(a1-6)]Man(b1-4)GlcNAc(b1-4)GlcNAc
Summary of the method: as §1

Gal(a1-4)Gal(b1-4)Glc = target: Gal(a1-4)Gal(b1-4)Glc
Summary of the method: as §1

Gal(a1-4)Gal(b1-4)GlcNAc = target: Gal(a1-4)Gal(b1-4)GlcNAc
Summary of the method: as §1

[14] = target: Gal(a1-4)Gal(b1-4)GlcNAc(b1-2)Man(a1-3)[Gal(a1-4)Gal(b1-4)GlcNAc(b1-2)Man(a1-6)]Man(b1-4)GlcNAc(b1-4)GlcNAc
Summary of the method: as §1

[15] = target: Gal(a1-4)Gal(b1-4)GlcNAc(b1-3)Gal(b1-4)Glc
Summary of the method: as §1

Gal(a1-4)GlcNAc = target: Gal(a1-4)GlcNAc
Summary of the method: as §1

Gal(a1-6)Glc = target: Gal(a1-6)Glc
Summary of the method: as §1

Gal(b1-2)Gal = target: Gal(b1-2)Gal
Summary of the method: as §1

Gal(b1-3)Gal = target: Gal(b1-3)Gal
Summary of the method: as §1

Gal(b1-3)Gal(b1-4)GlcNAc = target: Gal(b1-3)Gal(b1-4)GlcNAc
Summary of the method: as §1

Gal(b1-3)GalNAc = target: Gal(b1-3)GalNAc
Summary of the method: as §1

[16] = target: Gal(b1-3)GalNAc(a1-3)[Fuc(a1-2)]Gal(b1-4)Glc
Summary of the method: as §1

[17] = target: Gal(b1-3)GalNAc(a1-3)[Fuc(a1-2)]Gal(b1-4)GlcNAc
Summary of the method: as §1

Gal(b1-3)GalNAc(b1-3)Gal = target: Gal(b1-3)GalNAc(b1-3)Gal
Summary of the method: as §1

[18] = target: Gal(b1-3)GalNAc(b1-3)Gal(a1-4)Gal(b1-4)Glc
Summary of the method: as §1

[19] = target: Gal(b1-3)GalNAc(b1-4)Gal(b1-4)Glc
Summary of the method: as §1

[20] = target: Gal(b1-3)GalNAc(b1-4)[Neu5Ac(a2-3)]Gal(b1-4)Glc
Summary of the method: as §1

Gal(b1-3)GlcNAc = target: Gal(b1-3)GlcNAc
Summary of the method: as §1

[21] = target: Gal(b1-3)GlcNAc(a1-3)Gal(b1-4)GlcNAc
Summary of the method: as §1

[22] = target: Gal(b1-3)GlcNAc(a1-6)Gal(b1-4)GlcNAc
Summary of the method: as §1

Gal(b1-3)GlcNAc(b1-2)Man = target: Gal(b1-3)GlcNAc(b1-2)Man
Summary of the method: as §1

[23] = target: Gal(b1-3)GlcNAc(b1-2)Man(a1-3)[Gal(b1-3)GlcNAc(b1-2)Man(a1-6)]Man(b1-4)GlcNAc(b1-4)GlcNAc
Summary of the method: as §1

B1: CLECb-Precomplexed (Mus musculus), P43025 (protein)
chain: MAKNGLVLCILVVSLLLDQTDGYPSRMKARKHSKRRVKAKDDDLKSQVEKLWREVNALKEMQALQTVCLRGTKVHKKCYLASEGLKHYHEANEDCISKGGTLVVPRNSDEINALRDYGKRSLPGVNDFWLGINDMVTEGKFLDVHGFAVSFLNWDRAQPSGGKRENCVLFSQSAQGKWSDEACRSSKRYICEFIIPTRTRPLEQKLISEEDLAANDILDYKDDDDKV
glycan array binding signal (z-score) (Gal(a1-3)Gal(b1-3)GlcNAc): -0.097 | glycan array binding signal (z-score) [1]: -0.564 | glycan array binding signal (z-score) [2]: -0.036 | glycan array binding signal (z-score) [3]: 0.142 | glycan array binding signal (z-score) [4]: -0.47 | glycan array binding signal (z-score) [5]: 9.55 | glycan array binding signal (z-score) (Gal(a1-3)Gal(b1-4)Glc): -0.073 | glycan array binding signal (z-score) (Gal(a1-3)Gal(b1-4)GlcNAc): -0.28 | glycan array binding signal (z-score) [6]: 0.165 | glycan array binding signal (z-score) [7]: 0.85 | glycan array binding signal (z-score) [8]: -0.146 | glycan array binding signal (z-score) [9]: 0.567 | glycan array binding signal (z-score) [10]: 1.22 | glycan array binding signal (z-score) [11]: 1.35 | glycan array binding signal (z-score) (Gal(a1-3)GalNAc): -0.387 | glycan array binding signal (z-score) [12]: -0.176 | glycan array binding signal (z-score) [13]: 0.362 | glycan array binding signal (z-score) (Gal(a1-4)Gal(b1-4)Glc): -0.183 | glycan array binding signal (z-score) (Gal(a1-4)Gal(b1-4)GlcNAc): -0.499 | glycan array binding signal (z-score) [14]: -0.44 | glycan array binding signal (z-score) [15]: -0.507 | glycan array binding signal (z-score) (Gal(a1-4)GlcNAc): -0.058 | glycan array binding signal (z-score) (Gal(a1-6)Glc): 0.077 | glycan array binding signal (z-score) (Gal(b1-2)Gal): -0.188 | glycan array binding signal (z-score) (Gal(b1-3)Gal): -0.344 | glycan array binding signal (z-score) (Gal(b1-3)Gal(b1-4)GlcNAc): -0.368 | glycan array binding signal (z-score) (Gal(b1-3)GalNAc): -0.269 | glycan array binding signal (z-score) [16]: -0.398 | glycan array binding signal (z-score) [17]: -0.376 | glycan array binding signal (z-score) (Gal(b1-3)GalNAc(b1-3)Gal): -0.222 | glycan array binding signal (z-score) [18]: -0.191 | glycan array binding signal (z-score) [19]: -0.025 | glycan array binding signal (z-score) [20]: -0.421 | glycan array binding signal (z-score) (Gal(b1-3)GlcNAc): -0.047 | glycan array binding signal (z-score) [21]: -0.293 | glycan array binding signal (z-score) [22]: -0.382 | glycan array binding signal (z-score) (Gal(b1-3)GlcNAc(b1-2)Man): -0.324 | glycan array binding signal (z-score) [23]: 0.556
